According to PubChem BioAssay AID686970 (National Center for Advancing Translational Sciences (NCATS), 2013):
The campaign covered roughly 360,000 compounds. About 6,000 (1.7%) were called active. The inconclusive results got no clear call from the source; some entries with a clear call stand among them for comparison. The call rests on the fitted dose curve; in most records, active means well fitted cell-killing curve with a large enough effect; inconclusive means small, poorly fitted or top-dose-only effect, or effect the other way; inactive means flat fitted curve, though single readings scatter. No potency is given beside an inconclusive call; the fits are too rough.

Experiment: qHTS for induction of synthetic lethality in tumor cells producing 2HG: qHTS for the HT-1080-NT fibrosarcoma cell line;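 further: NT is the 2HG producing partner of a matched IDH1 knockdown line; nearly all actives have a fitted effect of over 55% in size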;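 on activity, negative = less viability: 0% = DMSO-treated cells and -100% = media-only wells without cells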
Conditions: HT-1080-NT fibrosarcoma viability, CellTiter-Glo ATP luminescence, 48 h; activity, negative = less viability: at 46.1 µM (top of the series) unless noted
In short: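 Viability by CellTiter-Glo luminescence after 48 h compound exposure at 37C of HT-1080-NT cells (750/well, RPMI, 5% FBS). % activity scaled between DMSO wells and medium-only wells, then curve-fitted and categorized by curve class.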
Potency means the concentration at half of the fitted maximal effect; tags describe the fitted curve by direction and shape.

Row | SMILES | Potency | activity, negative = less viability
1 | Cc1cc(C(=O)Nc2nc3c(s2)CCCC3)cs1 | active: 6.31 µM | 
2 | Cc1ccc2c(c1)-c1c(ssc1=S)C(C)(C)N2C(=O)c1ccco1 | inconclusive [cytotoxic, single point] | 
3 | Cc1cccc(NC(=O)CSCC(=O)N(CCC(C)C)c2c(N)n(Cc3ccccc3)c(=O)[nH]c2=O)c1 | inconclusive [cytotoxic, partial curve] | 
4 | COCCN1CCN(c2cc(-c3ccccc3)nc3cc(-c4cccc(F)c4)nn23)CC1 | inconclusive [cytotoxic, single point] | 
5 | COc1ccc(-c2ccc(Nc3ccc(S(=O)(=O)N4CCCC4)cc3)nn2)cc1OC | active: 11.2 µM | 
6 | O=C(CC[C@H]1O[C@@H](n2cnc3c(NC(=O)c4ccccc4)ncnc32)[C@H](O)[C@@H]1O)NCc1nc2ccccc2[nH]1 | inconclusive [rising, partial curve, poor fit] | 
7 | O=Cc1c(OCc2ccccc2)ccc2ccccc12 | inactive | 
8 | CCCCNC(=O)C[C@@H]1C[C@@]2(C(=O)OCC)CCC=C2N(Cc2ccc(Cl)cc2Cl)C1=O | inconclusive [cytotoxic, single point] | 
9 | O=C(N/N=C/c1c(O)n(-c2ccccc2Cl)c(=O)c2ccccc12)c1cccnc1 | active: 6.51 µM | 
10 | CC1(C(=O)O)CCCN1C(=O)c1ccco1 (stereo not drawn) | inconclusive [rising, partial curve] | 
11 | COc1cc(N/C(N)=N/c2nc(C)cc(C)n2)cc(OC)c1 | inconclusive [cytotoxic, single point] | 
12 | COc1ccc(/C=C/C(=O)NCCN2CCOCC2)cc1OC | inactive | 
13 | Cc1ccccc1C1(CCN2CCCCC2)CCOC(C)(C)C1 (stereo not drawn) | inactive | 
14 | COc1cc(/C=C/C(=O)OCC(=O)NCc2ccc(F)cc2)ccc1O | inconclusive [cytotoxic, partial curve] | 
15 | COc1ccc(CC(=O)NC(C)c2nnc(SCC(=O)c3ccc(Br)cc3)n2C)cc1 (stereo not drawn) | inconclusive [cytotoxic, single point] | 
16 | CCCCC/C=N/NC(=O)c1[nH]c2ccc([N+](=O)[O-])cc2c1C | inconclusive [cytotoxic, single point] | 
17 | O=C(Oc1ccccc1/C=C\C(=O)c1cc2ccccc2o1)c1cccc(F)c1 | inconclusive [cytotoxic, partial curve] | 
18 | C/C(=N\Nc1cc(C)nc(-c2ccccc2O)n1)c1ccccc1 | inconclusive [cytotoxic, single point] | 
19 | CCN1C/C(=C\c2cccc([N+](=O)[O-])c2)C(=O)/C(=C/c2cccc([N+](=O)[O-])c2)C1 | active: 4.11 µM | 
20 | NC(=S)NN=Cc1ccc(OC(=O)COc2cc(Cl)c(Cl)cc2Cl)cn1 | inconclusive [cytotoxic, full curve] | 
21 | Cc1ccc(-c2nc3ccc(Br)cn3c2Cc2cccc(Cl)c2)cc1 | inconclusive [cytotoxic, single point] | 
22 | O=C(Nc1ccc2c(c1)OCCO2)C(=O)c1c[nH]c2ccccc12 | active: 7.31 µM | 

Row | SMILES | Potency | activity, negative = less viability
23 | C/C(=N\NC(=O)C1COc2ccccc2O1)c1ccccn1 (stereo not drawn) |  | inconclusive: -15.7% [cytotoxic]
24 | NC(=O)c1nn(-c2ccccc2)nc1NC(=O)Cn1nnc(-c2ccccc2)n1 |  | inconclusive: -1.64% [cytotoxic]
25 | COC(=O)[C@H]1C[C@H](OC(=O)NCc2ccco2)[C@@]2(O)CN(S(=O)(=O)c3ccc(C)cc3)CC2[C@H]1C(=O)OC (stereo partly drawn) | inactive | 
26 | COc1cccc(NC(=O)CSc2nc3n[nH]c(C)c3c(=N)n2-c2cccc(OC)c2)c1 | inconclusive [cytotoxic, single point] | 
27 | CN(c1ccccc1)S(=O)(=O)c1cccc(NC(=O)CN2CCc3ccccc3C2)c1 | inactive | 
28 | CC(=O)N1CCCc2cc(S(=O)(=O)N3CCN(c4ccccn4)CC3)ccc21 | inactive | 
29 | COC(=O)[C@]12CCCCC=C1N(Cc1ccccc1)C(=O)[C@H](CC(=O)NCC13CC4CC(CC(C4)C1)C3)C2 | inconclusive [cytotoxic, single point] | 
30 | C=C1C(=O)[C@]23C[C@H]1CC[C@H]2[C@]1(C)[C@@H](OC(C)=O)CC[C@@](C)(C(=O)O)[C@H]1C[C@@H]3OC(C)=O | active: 6.51 µM | 
31 | Oc1ccccc1NCC(O)Cn1ccc2ccccc21 (stereo not drawn) | inconclusive [cytotoxic, single point] | 
32 | CCOc1ccccc1NC(=O)c1ccc2[nH]c(C)c(C)c2c1 | inconclusive [cytotoxic, partial curve] | 
33 | CCOC(=O)COc1ccc(S(=O)(=O)Nc2ccc3c(c2)OCCO3)cc1 | inconclusive [cytotoxic, single point] | 
34 | COc1ccc(-c2nc3c4ccccc4ccn3c2Cc2ccsc2)cc1OC | inconclusive [cytotoxic, single point] | 
35 | Cc1nn(C(C)(C)C)c(OC(=O)c2cccs2)c1S(=O)(=O)c1ccccc1 | active: 20.6 µM | 
36 | COc1ccc(/C=N/NC(=O)c2cccnc2)cc1COc1ccc([N+](=O)[O-])c(C)c1 | active: 2.59 µM | 
37 | CCc1c(-c2cccc(Cl)c2)ncn1Cc1cccc(-c2ccccc2)c1 | inconclusive [cytotoxic, single point] | 
38 | Cc1nnsc1C(=O)Nc1cc(Cl)ccc1Cl |  | inconclusive: -34.5% [cytotoxic]
39 | O=S(=O)(c1ccccc1Cl)N1CCCC(c2nc(-c3cccnc3)no2)C1 (stereo not drawn) | inactive | 
40 | O=C(NCC(c1cccs1)N1CCOCC1)c1cccc([N+](=O)[O-])c1 (stereo not drawn) | inconclusive [cytotoxic, single point] | 
41 | COc1ccc(CNC(=O)c2c(C)oc3c2C(=O)c2ccccc2C3=O)cc1 | inconclusive [cytotoxic, single point] | 
42 | COc1ccc(NS(=O)(=O)c2cc(Br)cc3c2N(C(C)=O)CC3)cc1 | active: 18.4 µM | 
43 | CN(C)CCCCOc1ccccc1-c1ccccc1 | inconclusive [cytotoxic, single point] | 
